Targets with the largest changes are over-represented here; the source holds about 21,000 in all.
Compound: CC1Cc2ccccc2N1C(=O)C1CCCN(C1)C(=O)CCl (mixture of isomers) [TRIM25 ligand 11 (diastereomer mixture)]
Assay: probe-labelled cysteine peptide fold change vs DMSO (competition) (log2 fold change); higher = less target engagement (more negative = stronger competition)
Details: THP-1, incubation time: 4 h
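Further: competitive chemoproteomic profiling in live THP-1 cells with an iodoacetamide desthiobiotin (IA-DTB) probe, comparing probe-labelled peptide intensities in compound-treated cells against DMSO-treated controls.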

Sequence of UniProt Q9UGR2 (Q9UGR2 whole entry, looked up): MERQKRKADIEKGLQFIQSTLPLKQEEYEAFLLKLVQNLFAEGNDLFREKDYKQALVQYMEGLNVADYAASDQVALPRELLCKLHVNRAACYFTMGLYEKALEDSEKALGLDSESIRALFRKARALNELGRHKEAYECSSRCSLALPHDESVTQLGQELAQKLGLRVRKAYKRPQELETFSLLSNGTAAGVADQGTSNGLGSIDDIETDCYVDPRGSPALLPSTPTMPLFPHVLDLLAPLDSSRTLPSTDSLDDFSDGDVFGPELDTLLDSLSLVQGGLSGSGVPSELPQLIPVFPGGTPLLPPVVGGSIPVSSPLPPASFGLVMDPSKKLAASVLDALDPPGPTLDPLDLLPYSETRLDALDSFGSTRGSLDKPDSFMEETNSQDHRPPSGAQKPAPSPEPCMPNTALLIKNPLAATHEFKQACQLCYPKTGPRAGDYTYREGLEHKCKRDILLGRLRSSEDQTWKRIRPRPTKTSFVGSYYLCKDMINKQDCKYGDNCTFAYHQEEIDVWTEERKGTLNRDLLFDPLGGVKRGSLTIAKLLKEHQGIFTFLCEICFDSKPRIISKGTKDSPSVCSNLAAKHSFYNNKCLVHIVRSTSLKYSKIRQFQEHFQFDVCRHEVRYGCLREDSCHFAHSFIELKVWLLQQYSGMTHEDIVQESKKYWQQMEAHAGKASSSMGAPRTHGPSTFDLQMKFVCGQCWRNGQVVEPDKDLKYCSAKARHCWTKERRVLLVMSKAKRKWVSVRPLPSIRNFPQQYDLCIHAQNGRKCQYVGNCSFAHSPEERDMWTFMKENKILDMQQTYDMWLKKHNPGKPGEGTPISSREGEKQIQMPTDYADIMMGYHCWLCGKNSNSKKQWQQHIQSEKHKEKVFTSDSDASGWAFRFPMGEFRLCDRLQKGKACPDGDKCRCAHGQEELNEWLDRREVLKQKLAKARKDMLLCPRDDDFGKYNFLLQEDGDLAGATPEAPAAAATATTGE
Sequence of UniProt Q9C0B5 (Q9C0B5 whole entry): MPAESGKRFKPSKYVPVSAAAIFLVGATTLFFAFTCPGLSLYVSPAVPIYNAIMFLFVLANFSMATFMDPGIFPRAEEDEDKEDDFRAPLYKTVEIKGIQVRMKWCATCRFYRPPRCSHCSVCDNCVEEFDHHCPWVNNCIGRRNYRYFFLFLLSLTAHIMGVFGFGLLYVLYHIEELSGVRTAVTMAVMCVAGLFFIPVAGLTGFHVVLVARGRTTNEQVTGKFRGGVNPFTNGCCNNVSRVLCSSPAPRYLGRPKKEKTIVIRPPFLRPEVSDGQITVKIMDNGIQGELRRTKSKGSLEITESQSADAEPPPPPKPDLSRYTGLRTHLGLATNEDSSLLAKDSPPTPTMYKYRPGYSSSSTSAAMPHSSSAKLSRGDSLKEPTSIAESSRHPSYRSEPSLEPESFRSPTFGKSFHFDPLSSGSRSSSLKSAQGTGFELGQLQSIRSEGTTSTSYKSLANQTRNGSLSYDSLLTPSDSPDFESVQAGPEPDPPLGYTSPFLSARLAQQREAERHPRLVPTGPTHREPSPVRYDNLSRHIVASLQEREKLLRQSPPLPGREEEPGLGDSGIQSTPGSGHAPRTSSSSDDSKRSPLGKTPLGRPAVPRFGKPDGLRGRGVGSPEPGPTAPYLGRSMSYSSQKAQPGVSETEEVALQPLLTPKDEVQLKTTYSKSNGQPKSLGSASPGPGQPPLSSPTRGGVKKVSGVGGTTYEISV
Sequence of UniProt Q96JP5 (Q96JP5 whole entry, looked up): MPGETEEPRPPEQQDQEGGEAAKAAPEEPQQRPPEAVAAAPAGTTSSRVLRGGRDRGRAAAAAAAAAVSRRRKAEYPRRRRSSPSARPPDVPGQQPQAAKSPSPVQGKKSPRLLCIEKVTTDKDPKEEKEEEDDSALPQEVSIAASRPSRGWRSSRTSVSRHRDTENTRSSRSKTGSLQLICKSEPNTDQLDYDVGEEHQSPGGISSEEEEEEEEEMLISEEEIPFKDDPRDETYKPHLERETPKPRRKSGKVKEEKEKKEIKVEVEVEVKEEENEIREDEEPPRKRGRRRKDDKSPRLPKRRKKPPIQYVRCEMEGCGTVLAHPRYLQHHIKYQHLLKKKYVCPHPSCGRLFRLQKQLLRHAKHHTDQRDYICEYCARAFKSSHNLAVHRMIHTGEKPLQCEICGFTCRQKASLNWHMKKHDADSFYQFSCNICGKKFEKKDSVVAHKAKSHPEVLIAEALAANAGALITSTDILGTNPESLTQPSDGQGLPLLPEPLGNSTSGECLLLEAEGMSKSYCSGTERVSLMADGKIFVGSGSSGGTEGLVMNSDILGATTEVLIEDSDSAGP
Sequence of UniProt O75844 (O75844 whole entry): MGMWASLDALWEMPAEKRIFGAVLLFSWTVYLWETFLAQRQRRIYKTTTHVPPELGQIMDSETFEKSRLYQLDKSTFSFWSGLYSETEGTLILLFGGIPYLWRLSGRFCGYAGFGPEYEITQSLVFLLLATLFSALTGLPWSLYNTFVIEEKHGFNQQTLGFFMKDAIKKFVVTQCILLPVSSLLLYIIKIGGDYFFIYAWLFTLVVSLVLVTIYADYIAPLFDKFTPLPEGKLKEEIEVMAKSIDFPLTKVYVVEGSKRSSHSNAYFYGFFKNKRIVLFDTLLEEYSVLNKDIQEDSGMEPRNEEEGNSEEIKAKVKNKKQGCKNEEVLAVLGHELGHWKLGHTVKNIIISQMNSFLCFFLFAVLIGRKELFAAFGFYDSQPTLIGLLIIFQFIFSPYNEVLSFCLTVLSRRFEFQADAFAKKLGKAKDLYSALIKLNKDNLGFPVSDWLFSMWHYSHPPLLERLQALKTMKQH
Sequence of UniProt P63104 (P63104 whole entry, looked up): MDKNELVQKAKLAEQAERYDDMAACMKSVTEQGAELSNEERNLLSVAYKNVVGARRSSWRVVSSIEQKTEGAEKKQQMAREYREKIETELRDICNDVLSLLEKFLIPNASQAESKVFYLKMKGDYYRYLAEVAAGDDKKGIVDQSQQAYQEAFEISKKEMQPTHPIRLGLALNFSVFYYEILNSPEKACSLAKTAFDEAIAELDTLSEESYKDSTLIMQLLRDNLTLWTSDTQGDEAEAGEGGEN
Sequence of UniProt Q9HBF4 (Q9HBF4 whole entry, looked up): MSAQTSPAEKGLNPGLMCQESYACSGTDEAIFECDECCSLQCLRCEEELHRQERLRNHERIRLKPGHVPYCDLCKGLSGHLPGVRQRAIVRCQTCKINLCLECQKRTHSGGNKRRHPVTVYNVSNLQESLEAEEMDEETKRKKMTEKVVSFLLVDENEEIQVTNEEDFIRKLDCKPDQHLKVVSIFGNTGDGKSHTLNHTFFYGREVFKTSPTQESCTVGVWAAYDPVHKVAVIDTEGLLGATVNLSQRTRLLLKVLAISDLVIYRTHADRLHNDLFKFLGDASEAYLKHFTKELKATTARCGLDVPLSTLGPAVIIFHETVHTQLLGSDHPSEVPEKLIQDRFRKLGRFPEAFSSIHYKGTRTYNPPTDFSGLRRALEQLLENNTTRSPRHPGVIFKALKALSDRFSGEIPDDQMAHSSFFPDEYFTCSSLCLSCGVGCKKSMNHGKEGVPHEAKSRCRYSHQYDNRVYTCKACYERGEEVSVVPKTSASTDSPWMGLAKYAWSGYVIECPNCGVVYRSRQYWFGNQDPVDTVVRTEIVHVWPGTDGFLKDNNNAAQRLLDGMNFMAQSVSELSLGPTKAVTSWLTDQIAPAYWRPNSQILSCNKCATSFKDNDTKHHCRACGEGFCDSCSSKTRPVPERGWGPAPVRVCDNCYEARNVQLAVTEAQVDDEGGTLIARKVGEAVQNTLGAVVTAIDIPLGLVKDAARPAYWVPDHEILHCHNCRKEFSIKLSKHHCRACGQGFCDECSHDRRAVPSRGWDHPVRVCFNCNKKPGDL
Sequence of UniProt Q6PJT7 (Q6PJT7 whole entry, looked up): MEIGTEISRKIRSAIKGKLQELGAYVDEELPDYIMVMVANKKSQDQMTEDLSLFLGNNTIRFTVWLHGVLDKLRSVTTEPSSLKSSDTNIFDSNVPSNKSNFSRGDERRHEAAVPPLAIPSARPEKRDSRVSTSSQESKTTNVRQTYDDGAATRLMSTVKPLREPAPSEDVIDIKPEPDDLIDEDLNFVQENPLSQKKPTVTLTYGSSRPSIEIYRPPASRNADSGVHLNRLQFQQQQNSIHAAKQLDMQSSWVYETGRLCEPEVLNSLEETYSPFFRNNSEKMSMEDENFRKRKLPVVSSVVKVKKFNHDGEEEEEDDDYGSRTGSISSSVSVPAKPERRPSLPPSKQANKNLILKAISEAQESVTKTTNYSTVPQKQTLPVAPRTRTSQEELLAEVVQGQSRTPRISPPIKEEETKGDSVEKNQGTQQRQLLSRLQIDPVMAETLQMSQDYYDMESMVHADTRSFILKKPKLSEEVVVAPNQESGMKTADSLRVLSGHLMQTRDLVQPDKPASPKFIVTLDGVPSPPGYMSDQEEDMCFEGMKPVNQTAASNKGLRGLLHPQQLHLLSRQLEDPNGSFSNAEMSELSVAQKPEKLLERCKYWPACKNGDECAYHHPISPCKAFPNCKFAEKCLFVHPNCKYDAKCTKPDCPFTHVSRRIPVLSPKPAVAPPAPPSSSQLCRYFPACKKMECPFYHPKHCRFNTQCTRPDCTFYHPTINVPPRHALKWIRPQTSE
Sequence of UniProt O75312 (O75312 whole entry, looked up): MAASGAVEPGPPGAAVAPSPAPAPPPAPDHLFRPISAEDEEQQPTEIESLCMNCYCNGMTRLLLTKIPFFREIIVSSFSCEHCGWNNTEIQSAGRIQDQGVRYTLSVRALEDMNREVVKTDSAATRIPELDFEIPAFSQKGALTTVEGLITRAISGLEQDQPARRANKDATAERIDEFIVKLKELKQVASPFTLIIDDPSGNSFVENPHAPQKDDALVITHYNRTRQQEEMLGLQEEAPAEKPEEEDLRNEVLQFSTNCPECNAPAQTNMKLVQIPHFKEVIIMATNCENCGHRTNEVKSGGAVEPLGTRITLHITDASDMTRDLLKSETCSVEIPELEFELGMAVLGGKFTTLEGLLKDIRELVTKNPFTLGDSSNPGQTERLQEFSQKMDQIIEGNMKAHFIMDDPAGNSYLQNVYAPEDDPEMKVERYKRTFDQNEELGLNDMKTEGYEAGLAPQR

Target	probe-labelled cysteine peptide fold change (10 µM)	probe-labelled cysteine peptide fold change (50 µM)
ZC3HAV1_Q7Z2W4_7_ADPEVCCFITK (UniProt Q7Z2W4)	0.0667	0.239
ZNF512B_Q96KM6_353_AADSLDTCPIPPK (UniProt Q96KM6)	-0.0189	-0.139
ZFYVE16_Q7Z3T8_1174_LDDLSLPSNPFLCGILIQK (UniProt Q7Z3T8)	0.467	–
ZMYM4_Q5VZL5_1499_SCVPNSPMWYSTFPIDPGTLDTMLTR (UniProt Q5VZL5)	-0.57	-0.69
ZCCHC2_Q9C0B9_305_GGPEDAEVEVEPCK (UniProt Q9C0B9)	-0.207	-0.146
ZFAND2A_Q8N6M9_84_GQIPDVVVGDHIDRDCDSHPGK (UniProt Q8N6M9)	0.135	0.65
ZSCAN20_P17040_399_SSHPPGTCPFYEELEALVR (UniProt P17040)	0.126	-0.102
ZC3HAV1_Q7Z2W4_78_YCQRPCDNLHLCK (UniProt Q7Z2W4)	0.00707	0.00938
ZDHHC5_Q9C0B5_245_VLCSSPAPR (UniProt Q9C0B5)	0.109	0.121
ZC3H7A_Q8IWR0_515_DVAAEEECR (UniProt Q8IWR0)	0.0596	0.0208
ZFAND6_Q6FIF0_170_CGNVYCGVHR (UniProt Q6FIF0)	0.11	0.139
ZNF622_Q969S3_6+9_ATYTCITCR (UniProt Q969S3)	-0.688	-0.3
XPO5_Q9HAV4_706_SCDPGLEDPCGLNR (UniProt Q9HAV4)	-0.0197	0.192
XRN2_Q9H0D6_266_PCGLCNQFGHEVK (UniProt Q9H0D6)	-0.0128	0.0752
ZNF274_Q96GC6_565+568_VHSGERPFECQECGR (UniProt Q96GC6)	-0.324	-0.142
ZNF644_Q9H582_152_GSVSLTTGQPVDQPTTESCSTLK (UniProt Q9H582)	-0.0066	-0.245
YWHAZ_P63104_25_LAEQAERYDDMAACMK (UniProt P63104)	-0.454	-0.365
ZC3H14_Q6PJT7_622_NGDECAYHHPISPCK (UniProt Q6PJT7)	0.00595	-0.0399
ZNF106_Q9H2Y7_432_QCPTAEKPEQEHTPNK (UniProt Q9H2Y7)	-0.102	-0.282

Target	probe-labelled cysteine peptide fold change (10 µM)	probe-labelled cysteine peptide fold change (50 µM)
ZC3HAV1_Q7Z2W4_168_QQICNQQPPCSR (UniProt Q7Z2W4)	-0.111	-0.15
ZNF292_O60281_982_QENSTVEGSGEALVTDLHTPVEDTCNDLCHPGFQER (UniProt O60281)	-0.201	-0.183
ZFP91_Q96JP5_313_CEMEGCGTVLAHPR (UniProt Q96JP5)	0.134	0.12
ZNF638_Q14966_428+431_IFPHLCSLCNVECSHLK (UniProt Q14966)	0.287	-0.0116
ZNF512_Q96ME7_445_CLLCQK (UniProt Q96ME7)	-0.0211	0.165
XPO5_Q9HAV4_419_TDSPSCEYSR (UniProt Q9HAV4)	0.235	0.582
ZMPSTE24_O75844_324_QGCKNEEVLAVLGHELGHWK (UniProt O75844)	-0.56	-0.365
ZPR1_O75312_288+291_EVIIMATNCENCGHR (UniProt O75312)	0.0324	-0.142
XPO5_Q9HAV4_221_AQANCR (UniProt Q9HAV4)	0.59	0.537
ZFR_Q96KR1_812_NVNLVLLCSEK (UniProt Q96KR1)	0.027	0.201
ZFR_Q96KR1_5_MIPICPVVSFTYVPSR (UniProt Q96KR1)	0.0256	0.58
ZNF83_P51522_375_CDECDK<|>ZNF678_Q99676_183_CDECDK (UniProt Q99676+P51522)	0.445	0.726
ZNF691_Q5VV52_260_THTGERPYECTECGR (UniProt Q5VV52)	0.782	0.661
ZC3HAV1_Q7Z2W4_7+8_ADPEVCCFITK (UniProt Q7Z2W4)	-0.269	-0.126
XPNPEP1_Q9NQW7_592_ECDWLNNYHLTCR (UniProt Q9NQW7)	-0.0936	-0.152
ZC3H7B_Q9UGR2_940_DMLLCPR (UniProt Q9UGR2)	-0.218	-0.591
ZMYM3_Q14202_314_MTCAHCR (UniProt Q14202)	-0.0785	-0.168
ZFYVE1_Q9HBF4_302_CGLDVPLSTLGPAVIIFHETVHTQLLGSDHPSEVPEK (UniProt Q9HBF4)	0.26	-0.342
